In all, about 33,000 sequences were measured (“E-score (-0.5 to 0.5)”: median about -0.035, highest 2% from about 0.35 on). The list shows a part of the results.
biological target: T1, Pdr3 (UniProt P33200); test: PBM E-score (8-mer binding enrichment) (E-score (-0.5 to 0.5)); higher = stronger / more preferred TF binding; most listed sequences are background and not binding sites; details: protein concentration: 200 nM; construct: GST-full length
T1 sequence: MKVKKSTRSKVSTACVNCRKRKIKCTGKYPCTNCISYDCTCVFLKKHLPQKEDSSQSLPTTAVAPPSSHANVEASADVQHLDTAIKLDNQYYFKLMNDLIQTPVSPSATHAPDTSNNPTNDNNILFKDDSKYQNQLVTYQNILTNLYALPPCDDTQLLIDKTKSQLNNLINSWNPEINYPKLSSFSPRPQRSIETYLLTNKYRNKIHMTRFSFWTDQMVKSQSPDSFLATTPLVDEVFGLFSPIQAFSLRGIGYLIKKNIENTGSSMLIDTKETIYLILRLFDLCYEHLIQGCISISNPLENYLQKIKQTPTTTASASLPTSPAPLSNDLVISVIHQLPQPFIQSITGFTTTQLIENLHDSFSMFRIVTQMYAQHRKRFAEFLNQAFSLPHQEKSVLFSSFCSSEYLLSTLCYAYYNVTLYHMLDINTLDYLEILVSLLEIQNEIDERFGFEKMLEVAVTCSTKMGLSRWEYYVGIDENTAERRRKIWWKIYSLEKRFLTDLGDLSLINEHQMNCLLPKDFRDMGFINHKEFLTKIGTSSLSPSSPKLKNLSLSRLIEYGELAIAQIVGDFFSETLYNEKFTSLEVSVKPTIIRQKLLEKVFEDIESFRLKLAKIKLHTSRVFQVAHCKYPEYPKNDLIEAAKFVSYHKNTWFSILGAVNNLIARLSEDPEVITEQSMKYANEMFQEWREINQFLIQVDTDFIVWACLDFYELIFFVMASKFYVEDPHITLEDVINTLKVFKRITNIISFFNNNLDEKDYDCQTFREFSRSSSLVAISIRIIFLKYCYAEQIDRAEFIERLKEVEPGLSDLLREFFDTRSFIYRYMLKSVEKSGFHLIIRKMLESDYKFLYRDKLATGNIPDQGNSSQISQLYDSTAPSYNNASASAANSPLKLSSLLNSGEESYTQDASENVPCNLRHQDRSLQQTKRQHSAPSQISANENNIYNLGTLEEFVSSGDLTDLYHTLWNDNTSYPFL
Experimental: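 Universal 'all 10-mer' protein binding microarrays (Agilent AMADID 015681) probed with GST-tagged S. cerevisiae TFs (full-length or DBD) made by in vitro transcription/translation (PURExpress), about 100-200 nM. Bound TF was detected with fluorescent anti-GST. Each ungapped 8-mer (which stands for itself and its reverse complement) is scored by the PBM enrichment score (E-score), a modified Wilcoxon-Mann-Whitney statistic from -0.5 to +0.5, computed with the Universal PBM Analysis Suite. Scale: above 0.35 generally sequence-specific binding.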

Sequence | PBM E-score
AGTAGCGA | -0.146
AGTCCGGA | 0.422
CCAATAAA | 0.026
GACCTGTA | -0.15
CTGGTTGA | -0.22
GGAAGCTA | 0.229
GTAGCTGA | -0.101
GCACAGAC | 0.0353
CGAAGGTA | 0.0358
ACATTTGG | 0.0987
ATAAAGGA | -0.173
AAAAGAAC | -0.113
CTCGATAA | 0.0888
CCCCGTCG | 0.165
AGACACAT | -0.111
CTAGGGAC | -0.153
CAGCCATA | -0.0134
GTGTCTCA | -0.11
CACAGAAC | -0.191
AAGTCTGA | -0.365
CGAGGCCG | 0.0807
CCACATGG | -0.0876
CACGTGTA | -0.182
GACATCTA | -0.0109
AGGAGAAG | -0.194

Sequence | PBM E-score
CTTGTCAA | -0.00536
AATAATAT | 0.27
AGCCATTC | 0.0239
AGTACGAC | -0.0634
ACGCGAGC | 0.0915
AGCTGTTG | -0.0549
TCGAGTAA | 0.0515
ATGAGAAG | -0.162
AGGCGCCT | -0.17
ACGGGGAT | 0.19
AACGAATA | 0.0903
CACCCTCG | -0.0329
GCAGTAGC | -0.121
TTGGAAAA | -0.141
AGGCAATA | -0.155
CTTGGGTC | -0.036
GAGGTCCA | 0.024
CAAACTGG | -0.159
AAAACGAC | -0.181
ATGCAGCG | -0.0518
AGAATAGG | 0.0285
AGAGGATA | -0.174
AGTGGTAC | -0.201
ATGATCCG | 0.336
CCTGCCAG | -0.261

Sequence | PBM E-score
ACGTTCCG | 0.445
GTTCCGGA | 0.475
AATCCTAT | 0.0914
CCAGGTTC | -0.00168
CCATCAGC | -0.0053
CCCAATCC | 0.0182
GGAGACAA | 0.114
CTTTCCTC | -0.162
GCGACCCA | 0.0349
CCCCCCGC | -0.0608
GGCAGGCC | 0.0687
GCTGTGCA | -0.104
CAAAGGTG | -0.16
GGCCAGCA | 0.0963
CAAGGGAG | 0.00978
AAGCCGGT | 0.199
GCGGGAGC | 0.134
ATCCCCAT | 0.0612
ATGTATGC | 0.0813
CCGTACGC | 0.063
ATCTAATA | -0.07
CCCCATCA | -0.0832
CAGCTATC | -0.0475
ACTAGACA | -0.00213
CGTAGATC | 0.0568

Sequence | PBM E-score
TATTGTGA | -0.091
AGCTTCGC | -0.162
CGTCCTAG | -0.0411
AAAGACTA | -0.113
ACGAAACG | 0.0629
CACTCAAC | -0.0691
GGTGGATA | -0.0607
TAGATAAA | -0.0298
CGCTCGAA | -0.024
GACAAGTA | 0.00093
ACAAACCG | 0.0143
AAACCACA | -0.0401
AGAGCTTC | 0.0657
AGGTCCTG | -0.0403
CCGTTTTA | 0.223
CCAATTGG | -0.116
GACTAACC | -0.2
GCTGCTTA | -0.0871
ACATAGTG | 0.0389
ATTCACTG | -0.172
AGCGTGCA | 0.15
CTAATGGC | -0.0791
CGGTGGGA | 0.119
CCCACAAC | -0.0955
ATAGGCCA | 0.113

Sequence | PBM E-score
CACTCGCA | 0.0332
AAAACTCT | -0.109
AGACGTCC | -0.143
ATCTGAAA | -0.0697
CCCTGTAG | -0.0901
CACCGGGG | 0.0593
GATACTGC | 0.173
CTTATAGA | -0.104
TAAGTCAA | -0.303
GACAATCC | 0.207
AAGCAAGA | -0.234
ACCATTGA | -0.174
AATCAGTC | 0.0138
CAGACCGC | 0.118
ACTATCAG | -0.184
CACATTCA | -0.021
AGATCTCG | 0.0171
CCAAAAAC | 0.13
CAATTGGA | -0.073
ATGGTTTC | 0.0245
ACCGGGCG | 0.0259
ATGCTAGC | 0.0707
AGTACTGA | -0.0379
CGAATAAG | -0.0661
CAACACGA | 0.00758

Sequence | PBM E-score
CAAGTCCA | -0.167
AACGCAAG | -0.127
CGGCCCGA | 0.247
CAACCCCC | -0.326
ACCACGCC | -0.107
GCCTACGA | -0.0387
TCGACCGA | 0.0776
GTATCGTA | -0.0613
AAAATGAC | 0.0831
ACCCTCGA | -0.0969
GTACAAGA | -0.173
AGCTGTTA | -0.253
AGAACCCT | -0.171
CAAATAGA | -0.00068
CTCCTAGA | -0.222
AAGCTGTA | -0.0433
ATTGAGCA | -0.0462
AACCTAGC | 0.0265
CCGTTGGA | 0.164
AGAGAGAG | -0.17
ATAACCCA | -0.0453
GATTGTCA | 0.00555
TCCGACGA | 0.308
CAATTCCC | 0.133
CATTGCAC | -0.0987

Sequence | PBM E-score
TGCGTCAA | -0.106
ACATTAAT | -0.0704
CTTCAATC | 0.0103
CGGAGGGC | 0.152
CGCTGGAC | -0.075
AGTTTCAC | -0.186
CAGTTGGG | -0.234
ATAATCGA | -0.0434
AGAGTGGG | -0.0517
ACTTCCGC | 0.385
CAGTTCCC | 0.342
ACGGCTGC | 0.0794
CTCAGGAG | -0.215
CAGACTAG | -0.363
CCATCGAA | -0.0409
CACCAGTG | -0.228
ACATGACT | -0.285
CGCAGTCA | -0.178
ACCTGTGG | -0.145
CTATTGCA | -0.00711
ACGCATAC | -0.183
ACCGTCGC | 0.291

Source: the supplement of paper PMC3334620
